Measured values taken from ChEMBL document CHEMBL4888484, “Replenishing the malaria drug discovery pipeline: Screening and hit evaluation of the MMV Hit Generation Library 1 (HGL1) against asexual blood stage Plasmodium falciparum ,using a nano luciferase reporter read-out” (2022).
Among all 150,000 compounds or so, about 540 (0.36%) showed an effect of 50% or more. This is one part of the list.

system: Plasmodium falciparum; test: Primary screen in NF54 nanoGlo assay, in single point, at 2uM, 72h; a lower Z score goes with more inhibition; type: functional, Erythrocyte; conditions: timepoint 72 hour

| Compound | % Inhibition [%] | Z score |
| --- | --- | --- |
| CCn1cc(CN[C@@H](C)c2cnc(N(C)C3CCCCC3)nc2C)cn1 | -4 | 0.57 |
| O=C(c1cc(Cn2cnc3ccccc32)on1)N1C[C@H]2CCC[C@@]2(CO)C1 | -2 | 0.26 |
| O=C(CC(F)(F)F)N1CCC[C@H](Oc2ccncn2)C1 | 2 | -0.25 |
| C[C@@H](CN(C)c1ncc(C(F)(F)F)s1)C(=O)O | -10 | 1.23 |
| CCc1ncc(CN2CCC[C@@]2(C)C(=O)O)cn1 | -11 | 1.37 |
| CC[C@H](NCC#N)c1ccccc1OC(F)F | -8 | 1.14 |
| Cn1nccc1[C@@H]1CCCN1Cc1nn(C)c(=O)[nH]1 | -18 | 2.21 |
| O=C(NC1(C(=O)O)CCCCC1)C1=NN(c2ccccc2)C(=O)CC1 | -16 | 1.77 |
| COCCn1ccn2nc(-c3ccc(F)cc3)c(CO)c2c1=O | -16 | 1.81 |
| CCCN(C)C(=O)c1cc(-c2ccc(C3CCCCC3)cc2)on1 | 3 | -0.31 |
| CC(=Cc1ccc(OCC(=O)O)c(Br)c1)c1cnccn1 | 8 | -1 |
| COCCn1cc(CNC[C@H](C)C#N)cn1 | 41 | -3.48 |
| CC1=C(c2ccc(Cl)cc2)S(=O)(=O)N=C1N1CCCCC1 | -7 | 1.02 |
| COCc1nn(C)c2c1CN(C(=O)c1ccc3ccccc3n1)CC2 | -11 | 1.26 |
| CN1CCN(CC(=O)NCCC2CCCCC2)S1(=O)=O | -4 | 0.45 |
| Cn1nc(C(=O)N(Cc2cccs2)C2CCCC2)c2c1CCOC2 | -9 | 1.14 |
| Cc1cc(N2CCN(C(=O)c3ccco3)CC2)nc2nnc(C)n12 | -17 | 2.19 |
| Cc1c(C(=O)NCc2ccc(OC(C)C)cc2)cccc1-n1nnc2cccnc21 | -13 | 2.49 |
| CN(Cc1cc(C2CC2)[nH]n1)Cc1ccc(-c2cc[nH]n2)s1 | -3 | 0.53 |
| Cn1cc(CN(Cc2ccccc2C(F)(F)F)C2CC2)cn1 | -3 | 0.65 |
| CCn1c(NCc2cncn2C)nc2ccc(Br)cc21 | -1 | 0.12 |
| CC(C)c1nc(CCNC(=O)CC2CCCCC2C)n(C)n1 (stereo unspecified) | -7 | 1.16 |

| Compound | % Inhibition [%] | Z score |
| --- | --- | --- |
| O=C(NCCc1nc(-c2cccs2)c[nH]1)c1ccccc1 | 1 | -0.1 |
| CCC[C@H](NC(=O)N1CCC2(CC1)C(=O)N(C)C(=O)N2C)c1nccn1C | -1 | 0.08 |
| c1cnc2nc(-c3ccc4c(c3)OCO4)oc2c1 | -5 | 0.71 |
| O=C(c1ccsc1)N1CCCn2cc(-c3ccc4c(c3)OCO4)nc21 | -6 | 1 |
| CCn1c(=O)n([C@@H]2CCN(C(=O)Cc3ccc(OC)cc3)C2)c2ncccc21 | 5 | -0.88 |
| Cc1cc(C)c2ccc(C(=O)N3C[C@H]4CC[C@@H](C3)N(CC3CC3)C4)cc2n1 | -13 | 2.4 |
| Cc1cccc2[nH]cc(CCC(=O)NC[C@H]3CCN(C)C(=O)C3)c12 | 2 | -0.3 |
| COc1cccc(C[C@H](NC(=O)C(=O)Nc2cc(C)nn2C)C2CC2)c1 | -2 | 0.45 |
| Cc1sc(Cn2ccc(=O)[nH]c2=O)nc1C(F)(F)F | 0 | 0.04 |
| O=C(Cc1csc(-c2ccoc2)n1)NC[C@H](O)C1CCCCC1 | -2 | 0.22 |
| O=C(c1cccc(-n2cccn2)n1)N(CC1CC1)c1cccnc1 | 5 | -1.03 |
| CC(C)[C@H](CNC(=O)CCCc1ccc2c(c1)CC(=O)N2)Cc1ccccc1 | -8 | 1.01 |
| CCn1cnnc1CNC(=O)[C@@]1(C)CC1(Cl)Cl | -2 | 0.19 |
| Cc1cccc(-c2ncc(C(=O)N(C)C3CCCCC3)c(N3CCN(c4ccccc4F)CC3)n2)c1 | -13 | 2.18 |
| COC[C@@H]1CN(c2cnccn2)C[C@H]1C(=O)NCc1ccncc1 | -12 | 1.75 |
| O=C(Nc1c(F)cc(Cl)cc1F)C(=O)N1CCOC[C@H]1C1CC1 | 7 | -0.71 |
| O=S(=O)(NC1(c2ccc3c(c2)OCCO3)CC1)c1ccoc1 | -19 | 1.89 |
| CCCOc1ccc(-c2nc(C#N)c(N3CCCCCC3)o2)cc1 | -5 | 0.98 |
| COc1ccncc1CNC(=O)c1cc(C)ccc1-n1ccnc1 | -45 | 5.23 |
| CCn1cnnc1-c1nn(C)c2c1CN(C(=O)c1n[nH]c(=O)c3ccccc13)CC2 | -5 | 0.72 |
| Cc1nc([C@H](C)NCc2c(Cl)cncc2Cl)n[nH]1 | 5 | -0.64 |
